{"source": "PubChem BioAssay AID504832", "about": "(National Center for Advancing Translational Sciences (NCATS), 2011)", "note": "Among all 310,000 compounds or so, about 18,000 (5.8%) were called active. This list was built around the results that the source calls inconclusive (neither active nor inactive); the mix of calls is not that of the screen. Calls follow the shape of the dose curve; as a rule, active = well fitted inhibition curve with a large enough effect; inconclusive = small, poorly fitted or top-dose-only effect, or another doubt; inactive = no such curve, though single readings can be large or run the other way. No potency is given beside an inconclusive call; the fits are too rough. Potency is read from the fitted curve at half-maximal effect; tags tell the direction and shape of the fitted curve."}
{"experiment": "Primary qHTS for delayed death inhibitors of the malarial parasite plastid, 48 hour incubation", "conditions": "P. falciparum luciferase growth in erythrocytes; series mostly up to 28.7 µM", "method_in_brief": "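Luciferase-expressing parasites in RBCs, 2% Hct / 0.1% parasitemia final; RPMI 1640 + 0.5% Albumax; 37 C, 5% CO2, one generation; luminescence read-out, lower signal = inhibition.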"}
{"smiles": "CCOC(=O)c1c(NC(=S)Nc2ccccc2)sc2c1CCN(CC)C2", "Potency": "active: 6.57 µM"}
{"smiles": "C=CCOc1c(Br)cc(CNc2nccs2)cc1OC", "Potency": "inconclusive [inhibitor, single point]"}
{"smiles": "CC(=O)[C@@H]1[C@@H]2C(=O)N(C3CCCCC3)C(=O)[C@@H]2C2c3ccccc3C=CN21", "note": "(stereo partly specified)", "Potency": "inconclusive [inhibitor, partial curve, poor fit]"}
{"smiles": "C/C(=N\\NC(=S)Nc1cccc(C)c1)c1cccc(N)c1", "Potency": "inconclusive [inhibitor, single point]"}
{"smiles": "CCCCn1c(N)c(N(CCOC)C(=O)c2ccc(-n3c(C)ccc3C)cc2)c(=O)[nH]c1=O", "Potency": "inconclusive [inhibitor, single point]"}
{"smiles": "O=C(Nc1ccc(-n2cnnn2)cc1)c1cc(S(=O)(=O)N2CCCC2)ccc1Cl", "Potency": "inconclusive [inhibitor, single point]"}
{"smiles": "CCC(=O)NC(Nc1sc2c(c1C(=O)OC)CCN(C)C2)(C(F)(F)F)C(F)(F)F", "Potency": "inconclusive [inhibitor, single point]"}
{"smiles": "O=c1c(S(=O)(=O)c2ccc(Cl)cc2)cn(Cc2cccc(F)c2)c2ccc(F)cc12", "Potency": "inconclusive [inhibitor, single point]"}
{"smiles": "COC(=O)c1ccccc1-c1c2ccc(=N)cc-2oc2cc(N)ccc12", "Potency": "active: 1.31 µM"}
{"smiles": "O=C(CCN1CCCCCC1)c1ccccc1", "Potency": "inactive"}
{"smiles": "COC(=O)C1=C(C)N(Cc2ccccc2)C(=NCCCCO)N[C@H]1CCc1ccccc1", "Potency": "inconclusive [inhibitor, partial curve, poor fit]"}
{"smiles": "C/C(N)=C(/C#N)C(=O)CSc1nc2ccccc2c(=O)n1Cc1ccc(C)cc1", "Potency": "inconclusive [inhibitor, single point]"}
{"smiles": "Cc1cc(C)c(NC(=O)CN2C(=O)NC(Cc3ccccc3)C2=O)c(C)c1", "note": "(stereo unspecified)", "Potency": "inconclusive [inhibitor, single point]"}
{"smiles": "CCC(=O)Nc1ccc2nc(C3CC3)n(Cc3ccc(C(C)(C)C)cc3)c(=O)c2c1", "Potency": "inactive"}
{"smiles": "c1nc(NCc2ccc3c(c2)OCO3)c2cc(-c3ccoc3)ccc2n1", "Potency": "inconclusive [inhibitor, single point]"}
{"smiles": "CN1CCC(C(=O)N2CCCC(C(=O)c3ccc4c5c(cccc35)CC4)C2)CC1", "note": "(stereo unspecified)", "Potency": "inconclusive [inhibitor, single point]"}
{"smiles": "COc1ccc(C2=NOC(Cn3nc(C(=O)NCc4ccco4)cc3-c3ccccc3)C2)cc1", "note": "(stereo unspecified)", "Potency": "active: 13.1 µM"}
{"smiles": "Oc1ccccc1-c1nnc(SCCN2CCOCC2)n1Cc1ccccc1", "Potency": "inconclusive [inhibitor, partial curve, poor fit]"}
{"smiles": "COc1ccc(N2C(=O)c3ccccc3S2(=O)=O)cc1", "Potency": "active: 2.94 µM"}
{"smiles": "Cc1nn2c(N3CCOCC3)c3c(nc2c1-c1ccccc1)CCCC3", "Potency": "inconclusive [inhibitor, single point]"}
{"smiles": "Cc1nc(CS(=O)(=O)c2ccc(Cl)cc2)cc(Sc2ccccc2Cl)n1", "Potency": "inconclusive [inhibitor, partial curve]"}
{"smiles": "CO/N=C(/CS(=O)(=O)Cc1ccccc1Cl)c1ccc(Cl)cc1Cl", "Potency": "inconclusive [inhibitor, single point]"}
{"smiles": "CCN1CCc2nc(N)oc2CC1", "Potency": "inactive"}
{"smiles": "Cc1cccc(C)c1NC(=O)N1C2CCCC1CC(NC(=O)C(C)(C)C)C2", "note": "(stereo unspecified)", "Potency": "inconclusive [inhibitor, partial curve, poor fit]"}
{"smiles": "COc1cccc(OCC(=O)Nc2ccccc2NC(C)=O)c1", "Potency": "inconclusive [inhibitor, full curve, poor fit]"}
{"smiles": "COC(=O)[C@@]12CCCN1[C@H](c1ccc(-c3ccc(F)cc3)c(OC)c1)[C@H]1C(=O)N(C)C(=O)[C@H]12", "Potency": "inconclusive [inhibitor, single point]"}
{"smiles": "Cc1cc(OC(=O)c2ccco2)c2c3c(c(=O)oc2c1)CCC3", "Potency": "inactive"}
{"smiles": "COc1ccc(CC(=O)N2N=C(c3ccncc3)CC2(O)C(F)(F)F)cc1", "note": "(stereo unspecified)", "Potency": "inconclusive [inhibitor, full curve]"}
{"smiles": "C/C=C(\\C)C(=O)N[C@@H](c1ccccc1)[C@@H](O)C(=O)O[C@H]1C[C@@]2(O)[C@@H](OC(=O)c3ccccc3)C3[C@](C)(C(=O)[C@H](O)C(=C1C)C2(C)C)[C@@H](O)C[C@H]1OC[C@@]31OC(C)=O", "note": "(stereo partly specified)", "Potency": "active: 0.0657 µM"}
{"smiles": "COC(=O)[C@@]12CCCCN1[C@H](c1ccc(SC3CCCCC3)c(OC)c1)[C@@H]1C(=O)N(C)C(=O)[C@@H]12", "Potency": "active: 8.28 µM"}
{"smiles": "N#Cc1c(N)nc2c(c1-c1ccncc1)CCCCC2", "Potency": "inconclusive [inhibitor, full curve]"}
{"smiles": "COc1ccc(N(CC(=O)N2CCOCC2)S(C)(=O)=O)cc1Cl", "Potency": "inactive"}
{"smiles": "Oc1ccc(-c2[nH]ncc2-c2ccc(Cl)cc2)c(O)c1", "Potency": "inconclusive [inhibitor, partial curve, poor fit]"}
{"smiles": "Cc1ccc(OCc2ccc(C(=O)Nc3nc4ccccc4n3Cc3ccccc3)o2)c([N+](=O)[O-])c1", "Potency": "inconclusive [inhibitor, full curve]"}
{"smiles": "CCOc1ccccc1N1CCN(C(=S)NC(=O)C23CC4CC(CC(C4)C2)C3)CC1", "Potency": "active: 8.28 µM"}
{"smiles": "COCCN1Cc2cc3cc(C)ccc3nc2SC1=Nc1ccc(OC)cc1", "Potency": "inconclusive [inhibitor, single point]"}
{"smiles": "O=C(CCn1c(=S)oc2ccccc21)Nc1cc([N+](=O)[O-])ccc1F", "Potency": "active: 8.28 µM"}
{"smiles": "COc1ccc(Br)cc1CNC(=O)c1ccc2c(c1)N(C)CCS2", "Potency": "inconclusive [inhibitor, single point]"}
{"smiles": "O=C(NCCCl)Nc1ccccc1OCCOc1ccccc1NC(=O)NCCCl", "Potency": "active: 2.08 µM"}
{"smiles": "CC1CCN(C(=O)CSc2nc3ccccc3c(=O)n2Cc2ccc3c(c2)OCO3)CC1", "Potency": "inconclusive [inhibitor, full curve, poor fit]"}
{"smiles": "Cc1cccc(C)c1NS(=O)(=O)c1cc2c3c(c1)CC(=O)N3CCC2", "Potency": "active: 9.28 µM"}
{"smiles": "CCN(CC)S(=O)(=O)c1cccc(NC(=O)c2ccc(Sc3nncn3C)c([N+](=O)[O-])c2)c1", "Potency": "inconclusive [inhibitor, partial curve, poor fit]"}
{"smiles": "CC(C)c1c(C(=O)N/N=C/C=C/c2ccccc2)nnn1-c1nonc1N", "Potency": "inactive"}
{"smiles": "COc1cc(Cl)c(C)cc1NCC(=O)Nc1cccc(S(=O)(=O)N2CCCC2)c1", "Potency": "inconclusive [inhibitor, partial curve]"}
{"smiles": "CC(C)c1ccc(CNc2c([N+](=O)[O-])c(=O)oc3ccccc23)cc1", "Potency": "inconclusive [inhibitor, partial curve, poor fit]"}
{"smiles": "COc1cccc2cc(-c3csc(NC(=O)CCC(=O)NCCCN4CCC(C)CC4)n3)c(=O)oc12", "Potency": "inactive"}
{"smiles": "c1ccc2sc(NC3=NCN(Cc4ccc5c(c4)OCO5)CN3)nc2c1", "Potency": "inactive"}
{"smiles": "Cn1c(NC(=O)c2ccc(F)cc2)c(-c2ccccn2)c(=O)c2ccccc21", "Potency": "inactive"}
{"smiles": "COCCCNc1nc2c(-c3cccc(C)c3)nnn2c2ccccc12", "Potency": "inactive"}
{"smiles": "Cc1ccc(C)n1-c1ccc(-c2nnc3n2CCCCC3)s1", "Potency": "inconclusive [inhibitor, single point]"}
{"smiles": "Cc1ccc(S(=O)(=O)N(Cc2cccc(C)c2)C(=O)N2CCN(C)CC2)cc1", "Potency": "inconclusive [inhibitor, single point]"}
{"smiles": "Cc1ccc(C)c(OCCC(=O)OCC(=O)Nc2cc(S(=O)(=O)N3CCOCC3)ccc2C)c1", "Potency": "inactive"}
{"smiles": "Cc1ccsc1-c1nc(-c2ccccc2)c(-c2ccccc2)[nH]1", "Potency": "inconclusive [inhibitor, partial curve, poor fit]"}
{"smiles": "CCOC(=O)C1CCCN(c2nc3ccccc3nc2C(C#N)C(=O)NCc2ccccc2)C1", "note": "(stereo unspecified)", "Potency": "inconclusive [inhibitor, partial curve]"}
{"smiles": "CCCCCCCCCCCCCC[N+](C)(C)C", "Potency": "active: 0.953 µM"}
{"smiles": "COc1ccccc1CCNC(=O)C(=O)Nc1cc2c3c(c1)CC(=O)N3CCC2", "Potency": "active: 1.17 µM"}
{"smiles": "O=C(CC1C(=O)NCCN1Cc1ccccc1)NCCC1=CCCCC1", "note": "(stereo unspecified)", "Potency": "inactive"}
{"smiles": "Cc1noc(C)c1COc1ccc(C(=O)OC(C)C(=O)Nc2ccc(S(=O)(=O)N3CCOCC3)cc2)cc1", "note": "(stereo unspecified)", "Potency": "inconclusive [inhibitor, single point]"}
{"smiles": "CCOC(=O)c1c(-c2ccc(C)o2)csc1NC(=O)CN1CCC(C(N)=O)CC1", "Potency": "inconclusive [inhibitor, partial curve, poor fit]"}
{"smiles": "COC(=O)CSc1nc2sc3c(c2c(=O)n1-c1ccccc1)CCN(C)C3", "Potency": "inconclusive [inhibitor, full curve, poor fit]"}
{"smiles": "Cc1ccc2c(Cl)c(C(=O)NCCCn3ccnc3)sc2c1", "Potency": "inconclusive [inhibitor, single point]"}
{"smiles": "COc1ccc(C(=O)C2CCCN(Cc3cn[nH]c3-c3ccccc3)C2)cc1OC", "note": "(stereo unspecified)", "Potency": "inconclusive [inhibitor, single point]"}
{"smiles": "Cc1cccc2sc(NC(=O)C3CCN(S(=O)(=O)c4cc([N+](=O)[O-])ccc4Cl)CC3)nc12", "Potency": "inactive"}
{"smiles": "COc1ccc(Nc2ncnc3c2cnn3Cc2ccccc2)cc1OC", "Potency": "inconclusive [inhibitor, partial curve]"}
{"smiles": "CCOC(=O)c1c(NC(=O)CN2CCCCC2)sc2c1CCN(C(=O)OCC)C2", "Potency": "active: 10.4 µM"}
{"smiles": "Cc1ccnc(Nc2nc(-c3ccc(O)cc3O)cs2)c1", "Potency": "inactive"}
